In patent US6906072B1 (Eisai Co., Ltd., priority 2000, dated 2005):

system: potential dependent calcium channel; test: Measurement of potential dependent calcium channel activity using fluorescent dye (fura2) in cerebral cortex synaptosome stimulated with KCl; type: cell-based; conditions: rat cerebral cortex synaptosome, KCl stimulation, fura2, intracellular calcium ion concentration

Row | SMILES | IC50 [µM]
1 | CC(C)C(C#N)(CCCN1CCN(CCN2CCCc3ccccc32)CC1)c1ccccc1 (stereo not drawn) [Example 58] | 5.6
2 | CC(C)C/N=C(\Nc1ccc(F)cc1)N1CCN(CCCC(C#N)(c2ccccc2)C(C)C)CC1 (stereo not drawn) [Example 59, 4-[(4-Cyano-5-methyl-4-phenyl)hexyl]-N-(4-fluorophenyl)-N^2-(2-methylpropyl)-1(2H)-pyrazinecarboxyimidamide] | 8.2
3 | CC(C)C/N=C(\NCc1ccc(F)cc1)N1CCN(CCCC(C#N)(c2ccccc2)C(C)C)CC1 (stereo not drawn) [Example 60, 4-[(4-cyano-5-methyl-4-phenyl)hexyl]-N-(4-fluorobenzyl)-N′-(2-methylpropyl)-1 (2H)-pyrazinecarboxyimidamide] | 7.4
4 | CC(C)C(C#N)(CCCN1CCN(/C(=N/C2CCCCC2)NC2CCCCC2)CC1)c1ccccc1 (stereo not drawn) [Example 61] | 7.7
5 | CC(C)C(C#N)(CCCN1CCN(/C(=N/C#N)NCCOc2ccc(F)cc2)CC1)c1ccccc1 (stereo not drawn) [Example 62, N-Cyano-4-[1(4-cyano-5-methyl-4-phenyl)hexyl]-N′-[(4-fluorophenoxy)ethyl]pyrazinecarboxyimidamide] | 5.3
6 | CC(C)Cn1c(N2CCN(CCCC(C#N)(c3ccccc3)C(C)C)CC2)nc2ccccc21 (stereo not drawn) [Example 64] | 6.2
7 | CC(C)C(C#N)(CCCN1CCN(CCCC(C#N)(c2ccccc2)C(C)C)CC1)c1ccccc1 (stereo not drawn) [Example 65, Bis-1,4-[(4-cyano-5-methyl-4-phenyl)hexyl]piperazine] | 2.7
8 | CC(C)C(C#N)(CCCN1CCN(CCC(C#N)(c2ccccc2)C(C)C)CC1)c1ccccc1 (stereo not drawn) [Example 66, 1-[(4-cyano-5-methyl-4-phenyl)hexyl]-4-[(3-cyano-4-methyl-3-phenyl)pentyl]piperazine] | 4.4
9 | CC(C)C(C#N)(CCCN1CCC(CCc2cccc3c2OCO3)CC1)c1ccccc1 (stereo not drawn) [Example 67] | 7.1
10 | CC(C)C(C#N)(CCCN1CCN(CCOc2cccc(C#N)c2)CC1)c1ccc(C#N)s1 (stereo not drawn) [Example 70] | 13
11 | CC(C)C(C#N)(CCCN1CCN(CCOc2cccc(C#N)c2)CC1)c1cccs1 (stereo not drawn) [Example 75] | 9
12 | CC(C)C(C#N)(CCCN1CCN(CCOc2ccc(C#N)cc2)CC1)c1cccs1 (stereo not drawn) [Example 76] | 13
13 | CC(C)C(C#N)(CCCN1CCN(CCCc2cccs2)CC1)c1ccc(C#N)s1 (stereo not drawn) [Example 78] | 8.9
14 | CC(C)C(C#N)(CCCN1CCN(CCOc2cccc(C#N)c2)CC1)c1ccsc1 (stereo not drawn) [Example 85, 1-[4-cyano-5-methyl-4-(3-thienyl)hexyl]-4-[2-(3-cyanaphenoxy)ethyl]piperazine] | 10
15 | CC(C)C(C#N)(CCCN1CCN(CCOc2cccc(C#N)c2)CC1)c1cc(Br)sc1Br (stereo not drawn) [Example 92, 1-[4-cyano-5-methyl-4-[(2.5-dibromo)-3-thienyl]hexyl]-4-[2-(3-cyanophenoxy)ethyl]piperazine] | 3.1
16 | CC(C)C(C#N)(CCCN1CCN(CCOc2cccc(C#N)c2)CC1)c1cc(C#N)sc1Br (stereo not drawn) [Example 93, 1-(4-cyano-5-methyl-4-[2-bromo-5-cyano-3-thienyl)hexyl]-4-[2-(3-cyanophenoxy)ethyl]piperazine] | 6.9
17 | CSc1ccc(OCCN2CCN(CCCC(C#N)(c3cccs3)C(C)C)CC2)cc1 (stereo not drawn) [Example 94, 1-[4-cyano-5-methyl-4-(2-thienyl)hexyl]-4-[2-(4-methyltiophenoxy)ethyl]piperazine] | 0.7
18 | CC(=O)c1cccc(OCCN2CCN(CCCC(C#N)(c3cccs3)C(C)C)CC2)c1 (stereo not drawn) [Example 96, 1-[4-cyano-5-methyl-4-(2-thienyl)hexyl]-4-[2-(3-acetylphenoxy)ethyl]piperazine] | 1.9
19 | CC(=O)c1cccc(OCCN2CCN(CCCC(C#N)(c3ccsc3)C(C)C)CC2)c1 (stereo not drawn) [Example 97, 1-[4-cyano-5-methyl-4-(3-thienyl)hexyl]-4-[2-(3-acetylphenoxy)ethyl]piperazine] | 2.1
20 | CSc1ccc(OCCN2CCN(CCCC(C#N)(c3ccsc3)C(C)C)CC2)cc1 (stereo not drawn) [Example 99] | 0.8
21 | CC(C)C(C#N)(CCCN1CCN(CCOc2cccc(Br)c2)CC1)c1cccs1 (stereo not drawn) [Example 101, 1-[4-cyano-5-methyl-4-(2-thienyl)hexyl]-4-[2-(3-bromophenoxy)ethyl]piperazine] | 0.8
22 | CC(C)C(C#N)(CCCN1CCN(CCOc2ccccc2)CC1)c1cccs1 (stereo not drawn) [Example 102, 1-[4-cyano-5-methyl-4-(2-thienyl)hexyl]-4-(2-phenoxyethyl)piperazine] | 1.9
23 | CC(C)C(C#N)(CCCN1CCN(Cc2cc3cc(C#N)ccc3o2)CC1)c1cccs1 (stereo not drawn) [Example 106, 1-[4-Cyano-5-methyl-4-(2-thienyl)hexyl]-4-{[2-(5-cyanobenzofuranyl)}methyl]piperazine] | 1.3

Row | SMILES | IC50 [µM]
24 | CC(C)C(C#N)(CCCN1CCN(CCOc2ccccc2)CC1)c1ccc(C#N)s1 (stereo not drawn) [Example 107, 1-[4-cyano-5-methyl-4-(5-cyano-2-thienyl)hexyl]-4-(2-phenoxyethyl)piperazine] | 1.6
25 | CC(C)C(C#N)(CCCN1CCN(CCOc2cccc(Br)c2)CC1)c1ccc(C#N)s1 (stereo not drawn) [Example 108, 1-[4-cyano-5-methyl-4-(5-cyano-2-thienyl)hexyl]-4-[2-(3-bromophenoxy)ethyl]piperazine] | 0.6
26 | CC(C)C(C#N)(CCCN1CCN(CCOc2cccc(C#N)c2)CC1)c1ccc(Br)s1 (stereo not drawn) [Example 109, 1-[4-Cyano-5-methyl-4-(2-bromo-5-thienyl)hexyl]-4-[2-(3-cyanophenoxy)ethyl]piperazine] | 0.5
27 | CC(C)C(C#N)(CCCN1CCN(CCOc2cccc(Cl)c2)CC1)c1ccc(C#N)s1 (stereo not drawn) [Example 110, 1-[4-cyano-5-methyl-4-(2-cyano-5-thienyl)hexyl]-4-[2-(3-chlorophenoxy)ethyl]piperazine] | 5.6
28 | CC(C)N(CCN1CCN(CCCC(C#N)(c2cccs2)C(C)C)CC1)c1cccc(C#N)c1 (stereo not drawn) [Example 112, 1-[4-Cyano-5-methyl-4-(2-thienyl)hexyl]-4-{N-[(3-cyanophenyl)-N-isopropylamino]ethyl]piperazine] | 5.9
29 | CC(C)C(C#N)(CCCN1CCN(CCN(C)c2cccc(C#N)c2)CC1)c1cccs1 (stereo not drawn) [Example 113, 1-[4-cyano-5-methyl-4-(2-thienyl)hexyl]-4-{N-[(3-cyanophenyl)-N-methylamino]ethyl]piperazine] | 4.2
30 | CC(C)C(C#N)(CCN1CCN(CCOc2cccc(C#N)c2)CC1)c1cccs1 (stereo not drawn) [Example 114, 1-[3-cyano-4-methyl-5-(2-thienyl)mentyl]-4-[2-(3-cyanophenoxy)ethyl]piperazine] | 10
31 | CC(C)C(C#N)(CCN1CCN(CCOc2ccc(F)cc2)CC1)c1cccs1 (stereo not drawn) [Example 115] | 8.2
32 | CC(C)C(C#N)(CCCN1CCN(CC2CCCCC2)CC1)c1cccs1 (stereo not drawn) [Example 116, 1-[4-Cyano-5-methyl-4-(2-thienyl)hexyl]-4-(cyclohexylmethyl)piperazine] | 9.4
33 | CC(C)C(C#N)(CCCN1CCC(N2CCC(c3ccccc3)CC2)CC1)c1ccccc1 (stereo not drawn) [Example 117, 4-[4-(4-phenylpiperidinyl)-piperidinyl]-1-isopropyl-1-phenylbutyl Cyanide] | 11
34 | CC(C)C(C#N)(CCCN1CCC(N2CCC(C#N)(c3ccccc3)CC2)CC1)c1ccccc1 (stereo not drawn) [Example 118, 4-[4-(4-Cyano-4-phenylpiperidinyl)-piperidinyl]-1-isopropyl-1-phenylbutyl Cyanide] | 12
35 | CC(C)C(C#N)(CCCN1CCC(N2CCC(Cc3ccccc3)CC2)CC1)c1ccccc1 (stereo not drawn) [Example 119, 4-[4-(4-benzylpiperidinyl)-piperidinyl]-1-isoproryl-1-phenylbutyl Cyanide] | 5.4
36 | CC(C)C(C#N)(CCN1CCN(CCS(=O)(=O)N2CCCc3ccccc32)CC1)c1cccs1 (stereo not drawn) [Example 121, 1-[3-Cyano-4-methyl-5-(2-thienyl)pentyl]-4-[2-[N-(1 2.3.4-tetrahydro-1-quinolinyl)Sulfamoyl]ethyl]piperazine] | 14
37 | CC(C)C(C#N)(CCN1CCN(CCC(C#N)(c2ccccc2)C(C)C)CC1)c1ccccc1 (stereo not drawn) [Example 123, Bis-1,4-[(3-cyano-4-methyl-3-phenyl)pentyl]piperazine] | 8.5
38 | CC(C)C(C#N)(CCN1CCCN(CCC(C#N)(c2ccccc2)C(C)C)CC1)c1ccccc1 (stereo not drawn) [Example 124, Bis-1,4-[(3-cyano-4-methyl-3-phenyl)pentyl]homopiperazine] | 3.6
39 | CC(C)C(C#N)(CCCN1CC[C@H](N(CCC#N)Cc2ccccc2)C1)c1ccc(C#N)s1 (stereo partly drawn) [Example 175, 1-[4-cyano-4-(5-cyano-2-thienyl)-5-methylhexyl]-(3S)-3-[N-(2-cyanoethyl)-N-benzylamino]Pyrrolidine] | 3.9
40 | CC(C)C(C#N)(CCCN1CC[C@H](N(CCC#N)Cc2ccccc2)C1)c1cccs1 (stereo partly drawn) [Example 176, 1-[4-cyano-4-(2-thienyl)-5-methylhexyl]-(3s)-3-[N-(2-cyanoethyl)-N-Benzylamino]pyrrolidine] | 2.8
41 | CC(C)C(C#N)(CCCN1CC[C@H](N(CCC#N)Cc2cccc(C#N)c2)C1)c1cccs1 (stereo partly drawn) [Example 177, 1-[4-cyano-4-(2-thienyl)-5-methylhexyl]-(3S)-3-[N-(2-cyanoethyl)-N-(3-cyanobenzyl)amino]pyrrolidine] | 3.4
42 | CC(C)C(C#N)(CCCN[C@@H]1CCN(c2cccc(Br)n2)C1)c1cccs1 (stereo partly drawn) [Example 179, 1-(6-bromo-2-pyridyl)-(3R)-3-{N-[4-cyano-4-(2-thienyl)-5-methylhexyl]Amino}Pyrrolidine] | 19
43 | CC(C)C(C#N)(CCCN1CCN(Cc2nc3cc(Cl)ccc3o2)CC1)c1ccc(C#N)s1 (stereo not drawn) [Example 180, 1-[4-Cyano-4-(5-cyano-2-thienyl)-5-methylhexyl]-4-[2-(5-chlorobenzoxazoyl)methyl]piperazine] | 9.3
44 | Cc1ccc2oc(CN3CCN(CCCC(C#N)(c4ccc(C#N)s4)C(C)C)CC3)nc2c1 (stereo not drawn) [Example 181, 1-[4-Cyano-4-(5-cyano-2-thienyl)-5-methylhexyl]-4-[2-(5-methylbenzoxazoyl)methyl]piperazine] | 8.6
45 | CC(C)C(C#N)(CCCN1CCN(Cc2nc3ccccc3s2)CC1)c1ccc(C#N)s1 (stereo not drawn) [Example 182, 1-[4-Cyano-4-(5-cyano-2-thienyl)-5-methylhexyl]-4-[2-benzothiazoylmethyl]piperazine] | 7.8
